Laboratory results: ChEMBL document CHEMBL4888484, “Replenishing the malaria drug discovery pipeline: Screening and hit evaluation of the MMV Hit Generation Library 1 (HGL1) against asexual blood stage Plasmodium falciparum ,using a nano luciferase reporter read-out” (2022)
The campaign covered roughly 150,000 compounds. About 540 (0.36%) showed an effect of 50% or more. This is one part of the list.

These compounds were tested on Plasmodium falciparum (assay: Primary screen in NF54 nanoGlo assay, in single point, at 2uM, 72h; a lower Z score goes with more inhibition). Details: timepoint 72 hour.
Assay type: functional, Erythrocyte

SMILES | % Inhibition [%] | Z score
CC(C)C(=O)N1C2C=CC(C2)C1(C(F)(F)F)C(F)(F)F (stereo not drawn) | -5 | 0.53
N#Cc1cc(F)ccc1CO[C@H]1CCCc2c[nH]nc21 | -12 | 1.77
C#CCCC1(CCC(=O)Nc2cc(C)c3nccn3c2)N=N1 | -5 | 0.9
CC(C)Cn1ccc2c(cc(C(=O)NCc3ccc(F)c(Cl)c3)n2C)c1=O | -13 | 1.24
c1ccc(C2(c3nc(C4CCCC4)no3)CCOCC2)cc1 | -12 | 2.25
Cc1cc2ccccc2nc1N1CCC(c2ncc[nH]2)CC1 | -9 | 1.25
O=C(O)c1ccc(C(=O)N(CC2CCC2)CC(F)(F)F)cc1 | -8 | 1.22
CN(C)CCN(C(=O)c1cc(N(C)C)ccn1)c1ccccc1 | -4 | 0.56
CCS(=O)(=O)N(CCN1CCCCC1)C1CN(C(=O)NC2CCCCC2)C1 | 7 | -0.96
COc1ccc2c(c1)c(CN1CCC(C(=O)NCCN3CCOCC3)CC1)cn2C | -11 | 1.48
CC1(CS(=O)(=O)NC2CCN(c3ncccn3)CC2)COC1 | 0 | 0.05
Cn1nc(CC(C)(C)C)cc1NC(=O)c1ncoc1C1CC1 | -16 | 2.1
COc1cc(-c2ccc(C(=O)N(C)Cc3c[nH]nc3C)cc2)nc(OC)n1 | -7 | 1.02
COC(=O)c1ccc(Cl)c(S(=O)(=O)Nc2ccn(Cc3cccc4cccnc34)n2)c1 | 8 | -1.08
Cc1cc([C@H](C)NS(=O)(=O)CCN2CCCC2)c(C)s1 | 2 | -0.22
O=C(Nc1cccc([C@H]2Nc3ccccc3C(=O)N2CC(F)(F)F)c1)c1ccccc1Cl | 11 | -2.04
c1ccc(-c2ncc3c(n2)CCC[C@@H]3NC2CCC2)cc1 | -13 | 1.4
CO[C@@H](CNC(=O)Nc1ccccc1C(F)(F)F)c1cc2ccccc2o1 | -13 | 2.16
C#CCCC1(CCC(=O)N2C3CCC2CC2(C3)CC2(F)F)N=N1 (stereo not drawn) | 6 | -0.77
Cc1nc2cc(S(=O)(=O)N3CCC(C(=O)NCc4cccc(F)c4)CC3)ccc2n1C1CCCC1 | -12 | 2.16
CC1(C)c2[nH]c3ccccc3c2C[C@H]2C(=O)N(CCc3ccccc3)CC(=O)N21 | -1 | 0.14

SMILES | % Inhibition [%] | Z score
CCN1CCn2c(nn(CC(=O)Nc3cccc(F)c3)c2=O)C1=O | -10 | 1.13
CCn1cccc(NC(=O)NCCc2nnc3ccccn23)c1=O | -8 | 1.54
Cc1ccc([C@H]2CN(Cc3cccc(C#N)c3)C[C@@H]2N(C)C)cc1 | -3 | 0.4
C[C@@H](c1nc2cc(Cl)ccc2[nH]1)N(C)Cc1cnns1 | -10 | 1.33
O=C(NC[C@H]1COCc2nc3ccccc3n21)c1cccnc1 | -10 | 1.68
Cc1ccc(Cn2c(=O)c3nn(C)cc3n3c(=O)n(Cc4ccc(F)cc4)nc23)cc1 | 2 | -0.24
CN(C)Cc1ccc(C(=O)NCC(=O)N2CCN(c3ccccc3)CC2)cn1 | 12 | -1.52
CC(C)C[C@H]1CCN(Cc2cscn2)C1 | -1 | 0.09
Cc1cc(=O)[nH]c(N2CCC[C@H](NC(=O)OCC3CC3)C2)n1 | -5 | 1.08
CNC(=O)c1ccc(Cl)c(-n2ccnc2-c2cnc(-c3ccco3)nc2)c1 | 1 | -0.2
COc1cccc(CN2CCC3(CC[C@@H]3N3CCOCC3)CC2)c1 | -2 | 0.29
COCC1(CNC(=O)c2cc(C(N)=O)co2)CCCCC1 | -9 | 1.4
Cc1c(Nc2ncnc3c2cnn3C)c(=O)n(-c2ccccc2)n1C | -11 | 1.28
CN1CCN(C(=O)c2cccn2C)C[C@H]1C(C)(C)C | -4 | 0.68
Nc1nc2ccccc2n1CCCn1ccnc1 | -11 | 0.97
O=c1nc(CN2C[C@@H](c3cccc(C(F)(F)F)c3)OCC23CCCC3)[nH][nH]1 | -17 | 1.9
CS(=O)(=O)CC1(CC(=O)Nc2c(F)cccc2NC2CC2)CC1 | -3 | 0.41
COCCCN(Cc1csc(COc2ccccc2C)n1)C(=O)C1CCCC1 | -3 | 0.55
CC(=O)N[C@H]1[C@H](Oc2ccccc2)O[C@@H]2COC(c3ccccc3)O[C@H]2[C@@H]1OCC(=O)O (stereo partly drawn) | -13 | 2.53
C[C@](O)(CNC(=O)C(=O)Nc1cccc(C(F)(F)F)c1)c1ccc2c(c1)OCO2 | -10 | 1.77
CN(CCO)C[C@@H]1CN(Cc2sc3ccccc3c2Cl)C[C@@H]1CO | -2 | 0.32

SMILES | % Inhibition [%] | Z score
CCC(C)(C)C(=O)Nc1nnc(COC)s1 | -2 | 0.41
CC1CN(C(=O)C2CCN(C(=O)Nc3cccc4ccccc34)CC2)CC(C)O1 (stereo not drawn) | 2 | -0.46
COC[C@@H]1CN(S(=O)(=O)c2ccc(F)cc2)C[C@H]1c1ccncc1 | 1 | -0.16
CC(C)(C(=O)N1CC(=O)N(CCC(F)(F)F)C1)N1CCOCC1 | -14 | 1.72
COc1nc(-c2ccc(F)cc2)n(-c2ccc(NC(=O)c3ccc4c(c3)OCO4)cc2)n1 | -9 | 0.8
Cc1cc(C(=O)N2CC[C@H](C(F)(F)F)C2)n2nc(C)cc2n1 | 9 | -1.09
Cc1ccccc1Cc1nnn(C[C@H](O)COCc2ccccc2)n1 | -8 | 0.98
Oc1nc(Nc2ccc3ccccc3c2)nc(N2CCOCC2)n1 | 35 | -3.91
Cc1[nH]c(CN2C[C@H]3CCC[C@@H](C2)N(C)C3)cc1C#N | -13 | 2.5
O=C(O)[C@@H](c1ccc(-n2cccn2)cc1)N1CCN(c2ncccn2)CC1 | -9 | 0.79
CS(=O)(=O)N1N=C(c2cn(-c3ccccc3)nc2-c2ccccc2)C[C@H]1c1ccccc1 | -24 | 2.8
O=C(CC1CCNCC1)NCC1CCCCCCC1 | -10 | 1.29
COc1ccc2c(c1)N(Cc1c[nH]nc1C)C[C@H](C)O2 | 0 | 0.03
Nc1c(C(=O)Nc2cccc(F)c2)sc(=S)n1Cc1ccccc1 | 1 | -0.15
O=C(COCC(=O)N1CCN(c2ccccn2)CC1)N1CCCCCC1 | -37 | 4.34
CCC(CC)C(=O)NCc1cn([C@@H](C)C(=O)C2CC2)nn1 | -6 | 0.68
O=C([C@H]1CCc2nncn2C1)N1Cc2ccccc2C2(CCCC2)C1 | -15 | 1.86
O=C(NCc1cccc(F)c1F)[C@H]1CCC(=O)N(C2CCCCCC2)C1 | -4 | 0.54
COc1ncc(CN(C)[C@H]2CCN(Cc3ccccc3)C2)cn1 | -4 | 0.57
O=C(NCc1nccc(C(F)F)n1)[C@@H](c1ccccc1)N1CCCCC1=O | -2 | 0.22
CCc1nc(CC)n(CCC(=O)Nc2cc(C)on2)n1 | -7 | 0.88

SMILES | % Inhibition [%] | Z score
O=c1[nH]c2cccc(N3CCN(Cc4ccncc4F)CC3)c2[nH]1 | -5 | 0.71
COC[C@@H]1CN(Cc2ccc(F)c(F)c2)C[C@H]1C(=O)NC1CC1 | -1 | 0.11
CCN(C)C[C@H]1CCN(C(=O)Nc2ccc3nn(C(C)C)cc3c2)C1 | -10 | 1
c1ccc(-n2ncc3c(N4CC[C@H](N5CCCC5)C4)ncnc32)cc1 | 0 | -0.02
COCCO/C(=N/C(=O)c1cccc(C(F)(F)F)c1)NC[C@H]1CCCO1 | -5 | 0.73
CCCC[C@H](NC(=O)C(C)(C)N)c1cccnc1 | 9 | -1.3
Cc1c(C(C)NCC(=O)NC(C)(C#N)C2CC2)oc2ccccc12 (stereo not drawn) | -14 | 1.62
Cc1cccc(N2CCN(C(=O)Cc3scnc3-c3cccs3)CC2)c1C | -1 | 0.07
CCOc1cc(CNCc2cnc(C)cn2)ccc1O[C@@H](C)CC | -13 | 1.76
CC(=O)N[C@H](c1nc(Cn2cnc3ccccc32)no1)C(C)(C)C | 0 | 0.07
C[C@@H](c1ccccc1)N(CC(N)=O)CC1CCC1 | 13 | -1.55
Cc1c(CN2C[C@H]3CC(=O)NCCN(C)C(=O)c4cccn(c4=O)Cc4cn(nn4)[C@H]3C2)[nH]c2ccc(Cl)cc12 | -7 | 1.18
CC(C)(C)CNC(=O)C(C)(C)NCc1cccs1 | -8 | 1.43
Cc1ccn(-c2cc3c(cc2C(N)=O)OCO3)n1 | 2 | -0.32
CCc1nnc(C2(c3ccccc3Cl)CCOCC2)o1 | 3 | -0.53
CCN1CC(CN(C)C(=O)NCC2COCCO2)Oc2ccccc21 (stereo not drawn) | 1 | -0.11
CCCCN(C)c1ccc2nnc(CCc3nc(-c4cccc(C)c4)no3)n2n1 | -6 | 0.91
Cc1cnc(C2CCC2)n1C1CCN(C(=O)CCc2ccccc2)CC1 | -14 | 1.78
CCN(Cc1ccccn1)Cc1ccc(Br)o1 | -11 | 1.41
Cc1nc(C)c(C(=O)N(CCS(C)(=O)=O)C(C)(C)C)s1 | -6 | 0.7
COC(=O)Nc1cccc(NCc2ncc(C(C)(C)C)o2)c1 | 7 | -0.67
